{"source": "patent US20260193370A1", "about": "(SUZHOU SUNCADIA BIOPHARMACEUTICALS, published 2026)", "binders": {"B1": {"name": "Bispecific antibody 1 (bispecific antibody, human IgG4 S228P, kappa)", "heavy": "EVQLLESGGGLVQPGGSLRLSCAASGFTFSSYAMSWVRQAPGKGLEWVSGITGSGGSTYYADSVKGRFTISRDNSKNTLYLQMNSLRAEDTAVYYCVKDPGTTSIMSWFDPWGQGTLVTVSSASTKGPQVQLQESGPGLVKPSETLSLTCTVSGFSLIGYDLNWIRQPPGKGLEWIGIIWGDGTTDYNSAVKSRVTISKDTSKNQFSLKLSSVTAADTAVYYCARGGYWYATSYYFDYWGQGTLVTVSSASTKGPSVFPLAPCSRSTSESTAALGCLVKDYFPEPVTVSWNSGALTSGVHTFPAVLQSSGLYSLSSVVTVPSSSLGTKTYTCNVDHKPSNTKVDKRV[human IgG4 Fc with S228P (EU numbers) not spelt out]", "light": "EIVLTQSPGTLSLSPGERATLSCRASQSVRGRYLAWYQQKPGQAPRLLIYGASSRATGIPDRFSGSGSGTDFTLTISRLEPEDFAVFYCQQYGSSPRTFGQGTKVEIKTVAAPDIQMTQSPSSLSASVGDRVTITCRASQSISNNLNWYQQKPGKAPKLLIYYTSRFHSGVPSRFSGSGSGTDFTFTISSLQPEDIATYYCQQEHTLPYTFGQGTKLEIKRTVAAPSVFIFPPSDEQLKSGTASVVCLLNNFYPREAKVQWKVDNALQSGNSQESVTEQDSKDSTYSLSSTLTLSKADYEKHKVYACEVTHQGLSSPVTKSFNRGEC", "notes": "DVD-IgG format; First chain: anti-RANKL VH, linker ASTKGP, anti-NGF VH, IgG4 constant region; Second chain: anti-RANKL VL, linker TVAAP, anti-NGF VL, kappa constant region; also called anti-RANKL-NGF bispecific antibody; RANKL-NGF bispecific antibody"}}, "key": {"[1]": {"target": "human NGF protein (Sino biological, 11050-HNAC) (human, UniProt P01138 fragment)", "sequence (P01138 122-241 limits assumed)": "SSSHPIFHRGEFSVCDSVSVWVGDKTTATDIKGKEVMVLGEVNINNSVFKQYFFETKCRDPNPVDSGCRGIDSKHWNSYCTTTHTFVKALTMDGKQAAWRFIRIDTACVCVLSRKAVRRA", "assay": "cell-based or functional assay"}, "[2]": {"target": "T1, human RANKL protein (Sino Biological, 11682-HNCH) (human, UniProt O14788 136-317, limits assumed)", "T1 construct": "Bought recombinant protein", "T1 sequence (looked up)": "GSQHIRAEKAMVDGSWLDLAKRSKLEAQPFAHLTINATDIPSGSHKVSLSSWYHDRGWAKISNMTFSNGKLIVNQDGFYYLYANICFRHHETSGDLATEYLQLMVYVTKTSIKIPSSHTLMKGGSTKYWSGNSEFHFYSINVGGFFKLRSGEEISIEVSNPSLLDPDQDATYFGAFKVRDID", "assay": "SPR (Biacore), antibody captured on Protein A chip", "procedure": "Reaction signals were detected in real time by using Biacore, and binding and dissociation curves were obtained. After dissociation was complete in each cycle, the biochip was washed and regenerated with a glycine-hydrochloric acid regeneration solution (GE, BR-1003-54) having a pH of 1.5. Fitting was performed on the experimental data using BIAevaluation version 4.1 software with a 1:1 model, and affinity values were obtained."}, "[3]": {"target": "T1, human RANKL protein (Sino Biological, …)", "assay": "cell-based or functional assay"}, "[4]": {"target": "T1, human RANKL protein (Sino Biological, …)", "assay": "cell-based or functional assay", "remark": "listed apart in the source"}}, "data": [{"binder": "B1", "values": [{"measurement": "TF-1 cell proliferation-inhibiting activity, IC50 (TF-1 cells with human NGF, Cell-titer Glo)", "setting": "[1]", "result": 3.16, "unit": "nM"}, {"measurement": "fold affinity relative to denosumab", "setting": "[2]", "result": 3.8, "unit": "fold"}, {"measurement": "Osteoclast differentiation-inhibiting activity, fold relative to denosumab", "setting": "[3]", "result": "> 3.3", "unit": "fold"}, {"measurement": "Osteoclast differentiation-inhibiting activity, IC50 (Raw264.7 cells with human RANKL, TRAP assay)", "setting": "[4]", "result": 1.19, "unit": "nM"}]}]}
